Laboratory results taken from the supplement of paper PMC3334620.
Whole data set: some 33,000 sequences, median “E-score (-0.5 to 0.5)” near -0.013, cut for the highest 2% near 0.3. Some of the results follow.

biological target: T1, Msn1 (UniProt P22148); test: PBM E-score (8-mer binding enrichment) (E-score (-0.5 to 0.5)); higher = stronger / more preferred TF binding; most listed sequences are background and not binding sites; settings: protein concentration: 200 nM; construct: GST-full length
T1 sequence: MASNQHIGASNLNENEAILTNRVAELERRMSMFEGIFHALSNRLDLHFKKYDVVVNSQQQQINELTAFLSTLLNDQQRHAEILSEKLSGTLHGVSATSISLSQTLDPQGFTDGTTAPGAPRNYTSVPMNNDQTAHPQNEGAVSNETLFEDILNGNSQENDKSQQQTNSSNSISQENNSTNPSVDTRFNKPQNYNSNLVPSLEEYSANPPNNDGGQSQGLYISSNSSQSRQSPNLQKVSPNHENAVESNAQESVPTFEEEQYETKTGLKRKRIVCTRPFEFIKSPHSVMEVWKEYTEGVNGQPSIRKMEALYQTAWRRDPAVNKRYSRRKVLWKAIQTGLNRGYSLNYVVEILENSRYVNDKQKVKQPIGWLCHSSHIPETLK
Protocol: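 Universal 'all 10-mer' protein binding microarrays (Agilent AMADID 015681) probed with GST-tagged S. cerevisiae TFs (full-length or DBD) made by in vitro transcription/translation (PURExpress), about 100-200 nM. Bound TF was detected with fluorescent anti-GST. Each ungapped 8-mer (which stands for itself and its reverse complement) is scored by the PBM enrichment score (E-score), a modified Wilcoxon-Mann-Whitney statistic from -0.5 to +0.5, computed with the Universal PBM Analysis Suite. Scale: above 0.35 generally sequence-specific binding.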

Row | Sequence | PBM E-score
1 | ATCCTGCC | -0.188
2 | GCTTACAC | -0.145
3 | CCGCTCAC | -0.22
4 | GGAACAAC | 0.0504
5 | CCGTAACG | -0.096
6 | TCAGGAGA | -0.0143
7 | GGAGAGCC | -0.346
8 | AACGTGTC | 0.251
9 | GAGGTAAA | 0.0739
10 | GAGGGAAC | -0.0141
11 | ACGGTATA | -0.0729
12 | CATTACTC | 0.128
13 | AGGAGCAG | -0.262
14 | AAACCATT | 0.0322
15 | GTAATGAA | -0.0202
16 | ACCATGTA | 0.154
17 | ATTCCGTA | 0.198
18 | ATCACCGG | -0.189
19 | ATTTGGTG | -0.0212
20 | GCTTAAAC | -0.0733
21 | CCGCATAG | 0.0368
22 | CTCGCCAA | 0.0253
23 | GAGAACGC | -0.0088
24 | CCTGAGTC | -0.0945
25 | ATGTGCCC | -0.0153

Row | Sequence | PBM E-score
26 | ACACATGG | 0.161
27 | CCCCCTCC | -0.336
28 | CTAAGGAA | 0.115
29 | GTGAGGCA | -0.0279
30 | CTGCTCGA | -0.233
31 | AAACTCGA | 0.0109
32 | CAGAAGAC | 0.112
33 | CGCGTGCC | -0.134
34 | AGGTCCAG | 0.0683
35 | ACCATATG | 0.148
36 | TAGCCCCA | -0.163
37 | CTTTGCTA | -0.0573
38 | GCGTTTAC | -0.0648
39 | CGCCGTAA | 0.0564
40 | AAGTCCCT | 0.225
41 | GGAGAAGA | -0.21
42 | TCCCCTCA | -0.11
43 | AGAGCTGC | -0.244
44 | AGTATAGC | -0.00602
45 | GATAATCC | -0.0724
46 | ATGCTACA | -0.12
47 | CCTGCACG | -0.163
48 | AAGGTAGC | -0.16
49 | CGTAAGAA | -0.00925
50 | CTATTGAC | -0.0942

Row | Sequence | PBM E-score
51 | ATAAGCCA | -0.0287
52 | CGCCCACA | 0.0859
53 | ACAGGTGG | -0.0714
54 | AGCGTTCG | -0.04
55 | ATAGGGCG | -0.188
56 | TAAAGGAA | -0.131
57 | CGTAGACC | -0.151
58 | GACCATAA | 0.105
59 | CGCGTACA | 0.0819
60 | AGTGCGTC | -0.155
61 | AACCACGC | 0.116
62 | ACAGTTAC | 0.138
63 | CGGTCGGA | -0.0558
64 | ACAATATC | 0.247
65 | CTATGGTA | -0.058
66 | CCGCCGGA | 0.12
67 | GCTCACGA | -0.185
68 | GATTGTCC | 0.458
69 | ATGCGTGA | 0.167
70 | ATGCTGTC | 0.0368
71 | AACCAAGC | -0.0788
72 | GTCTCCAA | 0.0934
73 | GTACTAAA | 0.281
74 | CCTCCTAC | -0.352
75 | CCGACGTA | -0.149

Row | Sequence | PBM E-score
76 | ATTTTTGG | 0.0371
77 | ACACTAAC | 0.119
78 | CACACCCA | 0.00267
79 | ACTAGTGC | 0.163
80 | CGATAGAC | -0.0284
81 | CTTACTAC | 0.0818
82 | ATCGCCCC | -0.23
83 | CAGGACTG | -0.137
84 | GGAGGGAC | 0.166
85 | CACCCGGA | 0.00098
86 | CCCCGGAC | -0.0556
87 | CAACGGAG | -0.0515
88 | CTTACAGC | 0.0295
89 | CCACTCAG | -0.242
90 | GTCGTCTA | -0.00305
91 | AGGCCTCA | -0.261
92 | CAAGAAGC | 0.0015
93 | AGTAAACA | 0.0506
94 | CGAACGCG | 0.0282
95 | TCCCTCGA | 0.0135
96 | CGTTTCGC | 0.0248
97 | GCAACTAA | 0.044
98 | AGGGGACT | -0.151
99 | GAGTTAGC | -0.0683
100 | ACCTTTGG | -0.343

Row | Sequence | PBM E-score
101 | GTGCGCAA | -0.0763
102 | GCCCCGCC | -0.0833
103 | CCTTCATA | 0.0448
104 | ACTAACGA | -0.00087
105 | CGTCGTGA | 0.016
106 | AGGAGAGG | -0.357
107 | AGGCAGGG | -0.256
108 | ATAGGAAT | -0.0141
109 | CAGCGAGC | 0.0729
110 | GAAATACC | -0.0126
111 | GAAGCCCC | -0.359
112 | CAGCATGG | -0.0875
113 | CTTCATGA | 0.0972
114 | ATATGACC | -0.0751
115 | AGCCCGCC | -0.268
116 | GAACGCTC | -0.15
117 | AGCAATCA | 0.0558
118 | ACGCACCC | -0.219
119 | ATCAGAAT | -0.0571
120 | CTCTGTAC | 0.0138
121 | CTACGTTC | -0.126
122 | ATAGGGCC | -0.158
123 | TCCTAGAA | 0.127
124 | CCGAGTTC | 0.0909
125 | TCCGGGCA | 0.171

Row | Sequence | PBM E-score
126 | CGATACGC | 0.0134
127 | CCTCGATC | -0.00455
128 | GAAACCAA | -0.078
129 | ACGTGCTG | -0.0351
130 | AAGCGCGC | 0.133
131 | GAGGAGAC | -0.117
132 | AGTGTTCA | -0.0345
133 | CTGTGCCC | -0.131
134 | ACCCGTCC | -0.0862
135 | AGCTCGTG | -0.0447
136 | GCCTCCAC | -0.295
137 | AAACGTTT | 0.291
138 | CTGCACGA | 0.00403
139 | ACCGATCC | -0.12
140 | CCTTTAGC | -0.107
141 | CATACCGC | 0.104
142 | GCATATGA | -0.0245
143 | AAACAGTA | -0.0344
144 | CGAGCCTA | -0.12
145 | AATGGGCG | -0.132
146 | AAGAGTTA | -0.0816
147 | CCACGGTA | -0.145
148 | ACGCGCTG | -0.0805
149 | TGGGGGAA | -0.337
150 | GTCACCAA | 0.00107

Row | Sequence | PBM E-score
151 | AATGGGGA | -0.00796
152 | GACACAAC | 0.16
153 | AGAGAGCC | -0.262
154 | AGCATCTG | -0.0786
155 | ATGTTTTA | 0.0474
156 | TAACCTGA | -0.0313
157 | ACGGACGA | 0.0949
158 | TTGATCAA | 0.0253
159 | GTTGCGGA | 0.0984
160 | CAGTAACA | 0.0131
161 | CCAAGCCC | -0.141
162 | AGCTCTCC | -0.222
163 | CTTTTATA | 0.0612
164 | TACAACCA | 0.0532
165 | ACGAATCC | 0.0413
166 | CCTTACAG | -0.011
167 | CCGCAGTC | -0.132
168 | ACCAGGCA | -0.197
169 | AAATTGGG | 0.15
170 | AGAGGGCC | -0.237
171 | ATTCTACA | 0.0776
172 | TACTTAGA | 0.0191
